Assay results taken from article PMC4336329 (PLoS ONE, 2015).
Screen size: about 310,000 compounds; about 14,000 (4.5%) showed an effect of 50% or more. The effect is printed as a negative number. The list shows a part of the results.

Target: human ether-à-go-go-related gene (hERG) potassium channel (human, UniProt Q12809)
Assay: primary screen, population patch clamp on CHO cells stably expressing hERG
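Also: peak tail current of the secondary pulse compared with the same well before compound.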

Sequence of human ether-à-go-go-related gene (hERG) potassium channel (Q12809 whole entry, looked up): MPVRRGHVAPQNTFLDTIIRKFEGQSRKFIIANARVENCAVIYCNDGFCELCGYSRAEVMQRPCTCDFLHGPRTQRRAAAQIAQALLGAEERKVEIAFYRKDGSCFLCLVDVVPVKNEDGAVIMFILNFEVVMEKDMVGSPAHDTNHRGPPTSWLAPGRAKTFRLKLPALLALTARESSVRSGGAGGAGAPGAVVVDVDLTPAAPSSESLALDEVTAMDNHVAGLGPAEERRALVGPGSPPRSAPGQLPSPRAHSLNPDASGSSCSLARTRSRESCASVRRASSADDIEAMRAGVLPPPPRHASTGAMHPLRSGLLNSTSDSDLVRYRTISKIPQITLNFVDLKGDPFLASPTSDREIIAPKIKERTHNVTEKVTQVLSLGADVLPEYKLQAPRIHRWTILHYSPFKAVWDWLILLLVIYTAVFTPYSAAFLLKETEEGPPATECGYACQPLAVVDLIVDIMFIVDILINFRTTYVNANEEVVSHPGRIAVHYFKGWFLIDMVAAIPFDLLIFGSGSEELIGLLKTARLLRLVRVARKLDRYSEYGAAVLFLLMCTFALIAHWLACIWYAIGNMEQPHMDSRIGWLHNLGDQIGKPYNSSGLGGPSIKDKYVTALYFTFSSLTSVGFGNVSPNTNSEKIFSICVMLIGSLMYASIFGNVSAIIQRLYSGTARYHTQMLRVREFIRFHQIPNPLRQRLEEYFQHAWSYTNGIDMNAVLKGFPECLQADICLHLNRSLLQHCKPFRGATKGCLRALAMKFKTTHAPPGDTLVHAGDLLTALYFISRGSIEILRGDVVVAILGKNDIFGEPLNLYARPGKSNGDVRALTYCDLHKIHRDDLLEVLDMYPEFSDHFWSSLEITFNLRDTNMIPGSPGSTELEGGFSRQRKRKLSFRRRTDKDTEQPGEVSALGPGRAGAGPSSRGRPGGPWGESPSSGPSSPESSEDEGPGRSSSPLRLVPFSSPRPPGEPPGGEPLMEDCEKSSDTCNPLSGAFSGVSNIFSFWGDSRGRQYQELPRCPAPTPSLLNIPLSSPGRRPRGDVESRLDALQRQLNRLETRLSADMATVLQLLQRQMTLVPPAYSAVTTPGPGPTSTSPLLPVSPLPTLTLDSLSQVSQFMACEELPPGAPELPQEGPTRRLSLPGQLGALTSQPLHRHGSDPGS

Structure (SMILES) | hERG current change (%, negative = inhibition) at 10uM [%]
COc1ccc(S(=O)(=O)NCCCCCC(=O)NCCCN2CCOCC2)cc1 | 2.99
COc1cc(/C=C2\SC(N3CCCCC3)=NC2=O)cc(OC)c1OC | 5.97
Cn1c2ccccc2c2c(C(=O)O)cn(C3CCCC3)c(=O)c21 | 7.78
Cn1nc(CC(=O)NCCN2C(=O)CSC2=O)c2ccccc2c1=O | -29.5
O=[N+]([O-])c1nn(-c2ccccc2)n(O)c1=NCc1ccc2c(c1)OCO2 | -14.6
COCCNC(=O)C(c1cccs1)N(Cc1cccs1)C(=O)Cn1nnc2ccccc21 (stereo not drawn) | -12.3
O=C(NCCOC(=O)c1ccncc1)c1ccccc1 | 5.91
CCCCN1C(=O)C(=Nc2cccc3cnccc23)c2ccccc21 | -17.2
CC(C)(C)NC(=O)c1ccnc(C(C)(C)C)c1 | -0.115
CC(=O)Nc1ccc(OCC(=O)N2CCc3ccccc3C2)cc1 | 16.1
Cc1cc(C)c(NC(=O)CSc2nc3ccccc3c(=O)n2CCCN2CCOCC2)c(C)c1 | -47.6
Cc1cccc(NC(=O)c2cc(S(=O)(=O)N(C)c3ccc(F)cc3)ccc2Cl)n1 | -22
COc1ccc(S(=O)(=O)Nc2cccc(S(=O)(=O)N3CCCCCC3)c2)cc1 | -35.4
CC(CCc1ccccc1)NC(=O)c1ccncc1 (stereo not drawn) | 7.47
O=C(NC(=O)N1CCN(c2ccc([N+](=O)[O-])cn2)CC1)c1ccccc1F | -24.5
CCOc1ccc(CNC(=O)C(C)n2nc(C)c3c(C)n(-c4ccccc4)nc3c2=O)cc1 (stereo not drawn) | -16.1
CC1CCCCN1C(=O)CSCC(=O)Nc1nc(-c2cccs2)cs1 (stereo not drawn) | -13.6
O=C(NC1CCCCC1)N(CCN1CCOCC1)Cc1cc2cc3c(cc2[nH]c1=O)OCCO3 | -3.53
Cc1ccc(C(=O)CN(CCC(=O)O)S(=O)(=O)c2ccc([N+](=O)[O-])cc2)cc1 | -25.7
COc1cc(C2(c3ccc(O)c(OC)c3)C(=O)Nc3c(Br)cc(Br)cc32)ccc1O | 20.4
CCc1ccc(NC(=O)NCc2cccnc2)cc1 | -4.49
CCCCN(c1ccccc1)S(=O)(=O)c1cccc(C(=O)O)c1 | 5.27

Structure (SMILES) | hERG current change (%, negative = inhibition) at 10uM [%]
Fc1ccccc1NC(=S)NNc1ncc(C(F)(F)F)cc1Cl | 21.2
CC1(C)C2CCC1(C)C(OC(=O)C[n+]1ccccc1)C2.[Cl-] (stereo not drawn) | 23.9
CC(C)(O)[C@@H]1[C@@H]2C[C@@]3(CC[C@]4(C)C(CCC5[C@@]6(C)CC[C@H](O)C(C)(C)C6CC[C@]54C)[C@@H]13)C(=O)O2 (stereo partly drawn) | 4.28
COc1ccc(OC)c(NC(=O)Cn2c(CCC(=O)O)ccc2-c2cccs2)c1 | 3.59
CN(C(=O)COC(=O)C(Cc1ccccc1)NC(=O)c1ccccc1)c1ccccc1 (stereo not drawn) | -9.13
COc1ccc(CN(CC2CCC(C(=O)O)CC2)C(=S)Nc2ccc(C)c(Cl)c2)cc1 (stereo not drawn) | 8.35
CN(C(=O)Cc1noc2ccccc12)c1ccccc1 | 4.76
COC(=O)CSc1ccc2c(N)c(C(=O)OC)sc2c1 | 4.09
Cc1cc(C)cc(OC(=O)c2cccnc2)c1 | 13.5
CN(C)S(=O)(=O)c1ccc(C(=O)N2CCOCC2)cc1 | 10.5
COc1ccc(CC(=O)Nc2ccc(C(=O)Nc3ccccc3C(=O)O)cc2)cc1OC | 15.4
COc1cc(C2C(C#N)=C(N)Oc3cc(C)n(CCc4ccccc4)c(=O)c32)cc2c1OCO2 (stereo not drawn) | 3.51
O=C1NC(=O)N(Cc2ccccc2)C(=O)/C1=C\N1CCCc2ccccc21 | -2.24
S=C(NCCc1ccccc1)N/N=C/C1CCCCC1 | 2.45
CC1(C)CC(=O)C(C=NC2CC(C)(C)NC(C)(C)C2)=C(O)C1 | 4.88
Cc1ccc(C(=O)NCC(=O)OCC(=O)NCC(F)(F)F)cc1 | 14.1
Cc1nnc(SCC(=O)NC(C)(C)C)n1NCc1ccc(Cl)cc1 | -10.4
CCOC(=O)CSCc1nc(-c2ccc(Cl)cc2)oc1C | -1.57
O=C(COC(=O)[C@@H]1CCCN1S(=O)(=O)c1ccc(Cl)cc1)NC12CC3CC(CC(C3)C1)C2 | -12
COc1ccccc1NC1C=CS(=O)(=O)C1 (stereo not drawn) | -28.7
Cc1cccc(Nc2nc(N)nc(CSC(=S)N3CCOCC3)n2)c1 | -0.689
CCN(Cc1nc(-c2ccccc2)no1)C(=O)COc1cccc(OC)c1 | -16.3

Structure (SMILES) | hERG current change (%, negative = inhibition) at 10uM [%]
CSCCC(NC(N)=O)C(=O)NCC1CCCCC1 (stereo not drawn) | 8.35
Fc1cccc(Cl)c1Cn1nnc2c(-n3ccnc3)ncnc21 | 0.152
O=C1C(C=NCCCN2CCCC2=O)=C(O)c2ccccc21 | 12.1
CN(C)C(=O)C(OC(=O)c1ccc2c(c1)CCCC2)c1ccccc1 (stereo not drawn) | -4.36
CCOc1cc2[nH]c(=S)n(C(C)C)c(=O)c2cc1OCC | -1.9
Cc1ccc(NCC(=O)c2ccc([N+](=O)[O-])cc2)cc1 | -32.5
O=C(O)/C=C/C(=O)c1c(-c2ccccc2)[nH]c2ccccc12 | 19.7
O=C(Nc1ncc(Cc2ccc(SC(F)F)cc2)s1)c1ccccc1 | 8.52
CCc1ccccc1NC(=O)C/C(C)=N/NC(=O)COc1ccccc1C | 9.02
COc1cccc(NC(=O)C(=O)N/N=C/c2ccc3c(c2)OCO3)c1 | 6.94
COC(=O)c1c(-c2ccc(OC)cc2)oc2ccc(-c3ccc(OC)nc3)cc12 | 10.4
NS(=O)(=O)c1ccc(CNC(=O)c2cc(=O)c3cc(Cl)ccc3o2)cc1 | 10.9
Cc1cc(NC(=O)c2cc(C(C)(C)C)oc2C)no1 | 11.7
COc1ccc(CCNC(=O)c2c(C)nn(CC(C)C)c2Cl)cc1 | 12
CC(C)CN(CC(C)C)C(=O)C12CCC(C)(C(=O)C1)C2(C)C (stereo not drawn) | -0.0273
Clc1cccc2sc(N3CCCCC3)nc12 | 10.5
CCOC(=O)N1CCC(NC(=O)c2oc3c(C)c(C)ccc3c2C)CC1 | -32.2
CCn1c(/C=C/c2ccccc2F)nc2ccccc2c1=O | 14.6
CCOC(=O)NCc1cc(-c2nn(C)c(=O)c3ccccc23)ccc1C | -12.9
COc1ccc(Oc2nc3c(C)cccn3c(=O)c2/C=C(\C#N)C(N)=O)cc1 | -2.18
CCn1cc(C(=O)N2CCCC(C(=O)c3ccc4ccccc4c3)C2)cn1 (stereo not drawn) | -18.1
Cc1sc2ncnc(N3CCC(C(=O)Nc4ccc(F)cc4Cl)CC3)c2c1C | -34

Structure (SMILES) | hERG current change (%, negative = inhibition) at 10uM [%]
Cc1cc(C(=O)CCC(=O)N2CCN(S(=O)(=O)c3ccccc3)CC2)c(C)s1 | -27.3
Cc1ccc(-c2nc(CN3CCN(c4cnccn4)CC3)c(C)o2)o1 | 1.87
Cc1cccc(OCC(=O)Nc2ccc3oc(=O)ccc3c2)c1 | 8.55
O=C1OCCN/C1=C\C(=O)c1ccc(Cl)cc1 | 14.5
O=C(NC1CCCC1)c1cc(S(=O)(=O)N2CCCC2)ccc1Cl | 2.51
O=C(c1cccc(F)c1)N1CCCC(C(=O)N2CCCCCC2)C1 (stereo not drawn) | 11.2
CCN(Cc1ccccc1)C(=O)Cn1c(=O)n(CC(=O)NCc2ccco2)c(=O)c2sccc21 | -15
CCCCC(=O)Nc1cccc(NC(=O)c2ccc3c(c2)OCO3)c1 | 6.43
Cc1ccc(NC(=O)c2cc(NC(=O)c3ccccc3C(=O)O)ccc2N2CCCCC2)cc1 | 32.8
COc1ccc(C(=O)Nc2ccc(NC(=O)c3ccccc3)cc2)cc1S(=O)(=O)N1CCOCC1 | 16.6
C=CCn1c(=O)c2ccc(C(=O)NCc3ccccc3)cc2n(Cc2ccc(Cl)cc2)c1=O | 16.1
O=C(CCn1cccc1)NCc1ccc(Cl)cc1 | 0.828
CC1Cc2ccccc2N1C(=O)COC(=O)Cc1ccc(F)cc1 (stereo not drawn) | -13.9
Cc1nnn(-c2nonc2N)c1C(=O)N/N=C/c1cccc2ccccc12 | -7.26
COc1ccc(/C(C)=N/NC(=O)c2ccccc2N)cc1 | -6.35
COc1ccnc(CSC(N)=Nc2cccc(C(F)(F)F)c2)c1 | -12.5
Br.O=C(CN(Cc1ccccc1)C1=NCCS1)c1ccccc1 | -28.5
O=C(COC(=O)c1ccccc1)Nc1cccc(S(=O)(=O)NC2=NCCCCC2)c1 | 10.4
CN(C)CCCNCCCNC(=O)/C(=N\O)c1ccccc1 | 6.64
CCN(CC)S(=O)(=O)c1cc(NC(=O)c2cc(-c3ccccn3)nc3ccccc23)ccc1C | 22.1
O=C(c1cn(-c2ccccc2)nc1-c1ccncc1)N1CCCCC1 | -16.6
